{"source": "the supplement of paper PMC12217912", "parents": {"B1": {"name": "TEV protease; numbered along this chain (parent)", "chain": "MGESLFKGPRDYNPISSSICHLTNESDGHTTSLYGIGFGPFIITNKHLFRRNNGTLVVQSLHGVFKVKDTTTLQQHLVDGRDMIIIRMPKDFPPFPQKLKFREPQREERICLVTTNFQTKSMSSMVSDTSCTFPSGDGIFWKHWIQTKDGQCGSPLVSTRDGFIVGIHSASNFTNTNNYFTSVPKNFMELLTNQEAQQWVSGWRLNADSVLWGGHKVFMVKPEEPFQPVKEATQL"}}, "variants_of": "B1", "test": "raw area under fraction-flipped curve 0-4 h after induction (AUC4h, not background-subtracted), DNA-recorder readout of cleavage of the substrate (dimensionless); higher = more cleavage of the substrate by the protease variant", "conditions": "temperature: 34 °C; time window: 0-4 h after rhamnose induction", "procedure": "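In vivo DNA recorder in E. coli TOP10(DE3) ΔrhaA at 34 °C. Each TEVp single-site mutant (parent TEVp 0) is paired with a single-site variant of the 7-mer TEVs (canonical ENLYFQ|S). The substrate sits between flexible linkers in a Bxb1-sfGFP-TEVs-SsrA fusion, so cleavage stabilises Bxb1 and speeds flipping of a recombination array, read by NGS. The value is the raw area under the fraction-flipped curve over 0-4 h after rhamnose induction (AUC4h), with ≥20 reads per time point. It is not background-subtracted; inactive controls average about 0.047.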", "note": "Some of the results follow. The full chains were built here from the parent and the listed change. Values near 0.05 are background.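 Also: Bxb1 expression induced with 0.2% (w/v) L-rhamnose at OD600 near 0.5, cultures sampled hourly, flipped fraction per protease–substrate barcode pair counted by paired-end Illumina sequencing.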", "data": [{"variant": "S130I", "values": [{"measurement": "area with substrate ENLYAQS", "result": 0.0518}, {"measurement": "area with substrate ENLYGQS", "result": 0.0576}, {"measurement": "area with substrate ENLYHQS", "result": 0.0828}, {"measurement": "area with substrate ENLYIQS", "result": 0.143}, {"measurement": "area with substrate ENLYKQS", "result": 0.0519}, {"measurement": "area with substrate ENLYMQS", "result": 0.0751}, {"measurement": "area with substrate ENLYNQS", "result": 0.071}, {"measurement": "area with substrate ENLYPQS", "result": 0.0729}, {"measurement": "area with substrate ENLYRQS", "result": 0.0605}, {"measurement": "area with substrate ENLYSQS", "result": 0.0684}, {"measurement": "area with substrate ENLYYQS", "result": 0.0693}]}, {"variant": "L77W", "values": [{"measurement": "area with substrate ENLYAQS", "result": 0.0747}, {"measurement": "area with substrate ENLYCQS", "result": 0.0555}, {"measurement": "area with substrate ENLYDQS", "result": 0.0521}, {"measurement": "area with substrate ENLYEQS", "result": 0.0497}, {"measurement": "area with substrate ENLYGQS", "result": 0.0684}, {"measurement": "area with substrate ENLYHQS", "result": 0.0582}, {"measurement": "area with substrate ENLYKQS", "result": 0.06}, {"measurement": "area with substrate ENLYMQS", "result": 0.0578}, {"measurement": "area with substrate ENLYNQS", "result": 0.0572}, {"measurement": "area with substrate ENLYTQS", "result": 0.065}, {"measurement": "area with substrate ENLYVQS", "result": 0.0859}]}, {"variant": "G166I", "values": [{"measurement": "area with substrate ENLYAQS", "result": 0.0353}, {"measurement": "area with substrate ENLYCQS", "result": 0.0498}, {"measurement": "area with substrate ENLYDQS", "result": 0.0603}, {"measurement": "area with substrate ENLYEQS", "result": 0.0583}, {"measurement": "area with substrate ENLYGQS", "result": 0.06}, {"measurement": "area with substrate ENLYHQS", "result": 0.0524}, {"measurement": "area with substrate ENLYIQS", "result": 0.0454}, {"measurement": "area with substrate ENLYKQS", "result": 0.042}, {"measurement": "area with substrate ENLYMQS", "result": 0.0599}, {"measurement": "area with substrate ENLYNQS", "result": 0.0459}, {"measurement": "area with substrate ENLYPQS", "result": 0.053}, {"measurement": "area with substrate ENLYTQS", "result": 0.0562}, {"measurement": "area with substrate ENLYVQS", "result": 0.0363}, {"measurement": "area with substrate ENLYYQS", "result": 0.05}]}, {"variant": "I86W", "values": [{"measurement": "area with substrate ENLYAQS", "result": 0.0545}, {"measurement": "area with substrate ENLYEQS", "result": 0.0597}, {"measurement": "area with substrate ENLYGQS", "result": 0.073}, {"measurement": "area with substrate ENLYHQS", "result": 0.0675}, {"measurement": "area with substrate ENLYIQS", "result": 0.0661}, {"measurement": "area with substrate ENLYKQS", "result": 0.0478}, {"measurement": "area with substrate ENLYMQS", "result": 0.0713}, {"measurement": "area with substrate ENLYNQS", "result": 0.0533}, {"measurement": "area with substrate ENLYQQS", "result": 0.0621}, {"measurement": "area with substrate ENLYRQS", "result": 0.0566}, {"measurement": "area with substrate ENLYSQS", "result": 0.0543}, {"measurement": "area with substrate ENLYTQS", "result": 0.0641}, {"measurement": "area with substrate ENLYVQS", "result": 0.0709}, {"measurement": "area with substrate ENLYWQS", "result": 0.0554}, {"measurement": "area with substrate ENLYYQS", "result": 0.0634}]}, {"variant": "S154C", "values": [{"measurement": "area with substrate ENLYAQS", "result": 0.117}, {"measurement": "area with substrate ENLYCQS", "result": 0.0962}, {"measurement": "area with substrate ENLYDQS", "result": 0.0751}, {"measurement": "area with substrate ENLYEQS", "result": 0.0686}, {"measurement": "area with substrate ENLYGQS", "result": 0.0704}, {"measurement": "area with substrate ENLYHQS", "result": 0.0683}, {"measurement": "area with substrate ENLYIQS", "result": 0.135}, {"measurement": "area with substrate ENLYKQS", "result": 0.0455}, {"measurement": "area with substrate ENLYLQS", "result": 0.0581}, {"measurement": "area with substrate ENLYMQS", "result": 0.0986}, {"measurement": "area with substrate ENLYPQS", "result": 0.109}, {"measurement": "area with substrate ENLYQQS", "result": 0.0671}, {"measurement": "area with substrate ENLYRQS", "result": 0.0643}, {"measurement": "area with substrate ENLYSQS", "result": 0.0775}, {"measurement": "area with substrate ENLYVQS", "result": 0.125}, {"measurement": "area with substrate ENLYWQS", "result": 0.0769}, {"measurement": "area with substrate ENLYYQS", "result": 0.0647}]}, {"variant": "V165G", "values": [{"measurement": "area with substrate ENLYAQS", "result": 0.0573}, {"measurement": "area with substrate ENLYDQS", "result": 0.0449}, {"measurement": "area with substrate ENLYEQS", "result": 0.0556}, {"measurement": "area with substrate ENLYGQS", "result": 0.0538}, {"measurement": "area with substrate ENLYHQS", "result": 0.0412}, {"measurement": "area with substrate ENLYIQS", "result": 0.0558}, {"measurement": "area with substrate ENLYKQS", "result": 0.0349}, {"measurement": "area with substrate ENLYMQS", "result": 0.0695}, {"measurement": "area with substrate ENLYNQS", "result": 0.0405}, {"measurement": "area with substrate ENLYPQS", "result": 0.0519}, {"measurement": "area with substrate ENLYQQS", "result": 0.0532}, {"measurement": "area with substrate ENLYRQS", "result": 0.0563}, {"measurement": "area with substrate ENLYVQS", "result": 0.0705}, {"measurement": "area with substrate ENLYWQS", "result": 0.0523}]}]}
